Source: PubChem BioAssay (NCI)
Where a structure was tested more than once in an assay, its records may differ in their call.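 Single-concentration screen, 48 h exposure, 96-well plates. Endpoint: percent growth. Below 10 = active.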 Some entries of the source have several records that differ or are many. They are shown here; other results are not. There may be further records. This drug was run again and again over the years, at its own concentration, as given; each value is one run. Marks such as (2×) say how often a value occurs here.

System: SK-MEL-28 melanoma
Assay: NCI-60 one-dose screen, 48 h (100 = growth as untreated, 0 = no growth, -100 = all killed)
Settings: 0.25 µM

With `COc1cccc2c1C(=O)c1c(O)c3c(c(O)c1C2=O)C[C@@](O)(C(=O)CO)C[C@@H]3OC1CC(N)C(O)C(C)O1` (stereo not given in full) the growth (runs of 2007) was “inactive: 51.6, 68.3, 44.7, 50.4, 67, 63.2, 70.7, 64.6, 58.7, 68.2, 69.3, 43.6, 65.3, 68.6, 61, 55.4, 61.7, 60, 73.1, 61.3, 68.4, 79.9, 68, 69, 72.7, 66.1, 67.5, 10.8, 73.6 (2×), 71.3, 46.5, 41.3, 48.9, 63.8, 58.3, 58, 45.7, 56.1, 88.5, 63.3%”, the growth (runs of 2008) was “inactive: 80.3, 71.9, 57.3, 66.2, 73.7, 60.9, 71.5, 63.9, 81.8, 72.5, 61.4, 60.8, 22.5, 44, 56.7, 73.2, 53.3, 67.5, 44.8, 59.5, 68.9 (2×), 60.6, 50.1, 33.6, 46.9, 121, 59.3, 26.9, 18.5, 66, 20.5, 55.2, 64.6, 63.2, 57.5, 35.7, 40.2, 41.3, 68.7, 66.6, 62.5, 67.3, 70.8, 87.9, 80.7, 42.8, 45.9, 73.5, 45.3, 58.1, 49.4, 76.1% and active: 4.26%” and the growth (runs of 2009) was “inactive: 59.6 (2×), 55.5, 53.5, 54.3, 75.9, 68.1, 65.3, 72.6 (2×), 68.4, 69.3, 74.3, 50.3, 78.2, 71.6, 65.2, 74, 62.6, 67.9, 68, 66.1 (2×), 66.6, 40.6, 54, 61.4, 55.9, 65.4, 74.7 (2×), 70.6 (2×), 51.6, 72, 66.3, 67.4, 58, 73.9, 67.2, 56.5, 63.9, 59.3, 63 (2×), 64.1, 59.2, 58.7, 71.8, 61.3, 60.8, 47.7, 71.7, 63.8, 52.8, 49.8, 86.8, 68.5, 61, 78.4, 72.9, 61.6, 64.8, 53.7%”. For the same molecule, the growth (runs of 2010) was “inactive: 72.2 (3×), 84.4, 64.2, 70.2 (4×), 72.6, 68.2, 74.6 (2×), 83.8, 68.9, 64.7 (2×), 65.6, 65, 64.3, 59.9, 60.2 (2×), 75.4, 55, 63.2 (2×), 58.5 (3×), 64, 66.2, 60.3 (2×), 76.8, 45.2, 77.5, 69.7, 66.9, 69.2, 59.1, 67.5, 70.8, 66.5, 68.4, 70, 82, 82.8, 65.3, 66, 70.5%”, the growth (runs of 2011) was “inactive: 77 (2×), 76.9, 70.7, 77.5, 77.1, 71.8, 72.8, 71.7, 59.1, 72.7, 65.3, 79.7, 64, 79.1, 78.2, 80.4, 64.7, 79.9, 81.7, 80.9, 79.2, 88.6, 81.8, 88, 68.4, 80.1, 77.8, 56.1, 50.4, 66.7, 72.5, 53.1, 51.6, 56.7, 59.3, 58.1, 53, 59.9, 57.1, 56.9, 56.4, 59.2, 61.2, 52.1, 47, 49.9, 67.5, 69.7, 56.6, 49.5, 64.3, 68.1, 66.2, 55.6, 65.9, 73.4, 66.6, 78.4, 69.6, 68.3%” and the growth (runs of 2012) was “inactive: 61.4, 47.9, 57 (2×), 58.8, 66.5, 70.5 (2×), 72.2, 75.6, 52.1, 61 (2×), 63, 60, 68.6, 51.4, 50.6, 50.3, 53.5, 53.9, 52.5, 67.2, 60.9, 66.7, 76.1, 72.5, 66.2, 77, 79.1, 74.2, 75.4, 79.9, 73.2, 80.8 (2×), 65.9, 63.9 (2×), 65.4, 46.3, 69, 64.2, 72.4, 64.7, 75.7, 71.6, 71.3, 72.1, 69.6, 78.9, 85.3, 85.2, 81.7, 74.5, 76.4, 86.4, 73.5, 68.1, 71.9, 71.8, 63.5, 64.3, 54.7, 61.2, 62.7, 64%”. For the same molecule, the growth (runs of 2013) was “inactive: 66.9, 71.2, 77.2 (2×), 67.4, 72.5, 73.8 (2×), 73.2, 72.3, 79.9, 70.8, 74, 73.1 (2×), 77, 75.7 (2×), 71.3 (2×), 75.1, 77.4 (3×), 80.6 (2×), 80.7 (3×), 78.6 (2×), 81.2 (2×), 82.8, 73.4, 79.6, 81.1, 80, 69, 61.6 (2×), 77.1 (2×), 74.4, 77.3 (3×), 78.7, 67.2, 60.5, 77.5, 83.5, 69.1, 62.2, 67.9, 59.1, 64.3, 36.9, 49.8, 47.4, 46.1, 43.6, 44.4, 54.5, 53.2, 39.9, 33, 49.9, 58, 30.4%”, the growth (runs of 2014) was “inactive: 55.7 (2×), 52.8 (2×), 61.7, 58.7, 48.6, 63.2 (2×), 46.7, 50, 59.2, 47.7 (2×), 63.9, 48.3, 56.7, 62.3 (2×), 65.6, 72.6, 58.4, 68.1 (3×), 53.3 (2×), 49.2, 55.5, 57.2, 52.9, 54.6, 56.9 (2×), 55.9, 45.5, 41.2, 47.4, 51.8, 49.1, 50.6, 49.5, 42.9, 46.8 (2×), 49.4, 36, 24.8, 47.5, 31.2, 48.2, 46.6, 28.9, 31.7, 37.3, 40.6 (2×), 47.3, 40.5, 39.3, 34.9, 40.2, 45.1, 41.8, 69.2, 56.3, 52.4, 67.1, 60.9 (2×), 65.5, 48.8, 57.8, 54, 64.1, 64.5, 59.9, 67.2, 55.6, 64, 74, 61.6, 61%” and the growth (runs of 2015) was “inactive: 61.4 (2×), 56.5, 64.2, 59.3, 45.9, 59, 58.8 (2×), 50.9, 73.1 (2×), 73.4, 70.8, 44.1 (2×), 52.3, 48.1 (2×), 35.3, 45.6, 55.2 (3×), 49.9, 65.3, 58.5, 54.6, 51.3 (2×), 47.4, 61.3, 57.3, 67, 54, 51.5, 60.6 (2×), 50, 50.8, 53.9, 66.6, 47.2, 38.8, 56.4, 55.4, 51.2 (2×), 53.4, 64.1, 53.8, 61 (2×), 50.1, 52.2, 60.9, 76.3, 81.1, 61.6, 55.9, 73.7, 54.3, 55, 63.8, 58, 70.2, 68, 71.7, 55.7 (2×), 63.7, 69.2, 53, 58.7, 69, 50.7, 68.3, 63.9, 64.6, 65.5%”. For the same molecule, the growth (runs of 2016) was “inactive: 52.2, 62.3, 66.7 (2×), 71.9, 73.2, 49.2, 71.2, 73.8, 57.1, 61.7, 58.7, 62.2, 72.7, 53, 67.2 (2×), 54, 65.4 (2×), 61.3, 68.3 (2×), 77.7, 60.6, 48.2, 61.9, 62.1, 59.4, 57.3, 42.6, 60.9, 48.9, 50.6, 46.4, 56.4, 54.6, 48.4, 53.5, 60.1, 68.4, 76.4 (3×), 55.9, 73.4 (2×), 65.5, 72.5 (2×), 75.7 (2×), 66.9, 58.6, 66.1, 65.3, 73.6, 73.9, 72.1, 78.4 (2×), 78.9, 76.1, 70.2, 73.5, 69.7, 78.5, 79.4, 67.5, 79.3, 80.5, 77.1, 78.2, 74.5, 71.8, 64.1, 71.3, 78, 64.3, 67, 68, 69.1, 77.3, 74.3, 76.3%”, the growth (runs of 2017) was “inactive: 76.7, 65.2, 67.4, 56.5 (3×), 61.4, 59.3, 64.8, 62.3 (3×), 65.4, 59.4, 56.7, 56.9, 55.4 (2×), 65.9, 67.1, 67, 57.9, 57.5, 55.5, 59.2 (2×), 54.2, 49.2, 58.4, 60.1 (2×), 59.1, 56.2 (2×), 61.7, 54.6, 60.8 (2×), 62.9, 69.1, 64.3, 60.3, 53.4, 58.1, 71.2, 69.6, 65.1 (2×), 64.7 (2×), 64, 70.7, 71.9, 73.7, 65.7, 66.5 (2×), 57.1, 60.6 (2×), 69.7, 72.1, 58.9, 60.4, 59.8, 59.9 (2×), 55.3, 62.2, 54, 51.9, 60.9, 60, 67.2, 71.7, 78.5, 58.8, 65.5%” and the growth (runs of 2018) was “inactive: 69.8, 58.6, 61.8, 69.3, 63.3, 59.3, 60.4 (2×), 57.2, 68.1, 72.6, 78.9, 69.6, 74.6, 64.7, 68, 66.1, 71, 70.7, 63.8, 67.2, 66, 62.7, 67.1, 67.3, 64.1, 61.7, 67.4, 77.3, 73.4, 63.5, 66.2, 70.5, 75.1, 66.6, 59.5, 67.9, 63.2, 58.4, 68.9, 63.9, 69.7, 62.9, 62.3, 69.1, 75, 43.8, 55.6%”. The growth (runs of 2019) was “inactive: 63.8, 63.7, 50.9, 42.2, 54.2, 54.6, 58.6, 56.3, 61.3, 64.5, 66.6, 79.5, 74.5, 70.8, 75.4, 57.4, 64.3, 61.9, 66.7, 69.2, 62.9, 63, 64 (2×), 65.2, 64.7, 60.6, 57.2 (2×), 55.9, 58.7, 53.6, 60, 54.8, 56.6, 58.8, 73.2, 68.2, 64.1, 57.5, 65.3, 62.5, 65.6, 53.1, 51.7, 51.6%”, the growth (runs of 2020) was “inactive: 61 (2×), 52.2, 64.5, 59.9, 59.4, 55.8, 57.3, 62.2, 55.9, 51.9, 53.1, 59.1, 59.5, 56.6, 75.1, 61.4, 70.2, 67, 58.1, 66.2, 65.6, 68.6, 70.5%” and the growth (runs of 2021) was “inactive: 70.2, 80, 80.9, 70.8, 60.9, 66.5, 63.2 (2×), 69.6, 60.5, 65.4, 61.2, 58, 68.4, 58.4, 62.3 (2×), 50.5, 53.2, 59.3, 63.5, 51.3, 54.6, 56.7, 56.1, 58.2, 67.3, 72.5, 64.6, 62.1, 66.3, 66, 67.1, 67.9, 61.7, 59.5, 58.9 (2×), 60.3, 55.3, 66.1, 66.2, 65.5, 47.7, 53.9, 50, 51.5, 54.8, 40.1, 50.1, 49, 45.5, 58.5, 64.3%”.
